Among all 340,000 compounds or so, about 12,000 (3.5%) were called active. Inconclusive means that the source gave no clear call. Such entries were picked first, then a sample of the others. The call rests on the fitted dose curve; in most records, active means well fitted inhibition curve with a large enough effect; inconclusive means small, poorly fitted or top-dose-only effect, or another doubt; inactive means no such curve, though single readings can be large or run the other way. Potencies of inconclusive entries are left out as doubtful fits.
assay: qHTS Assay for Inhibitors of Hepatitis C Virus (HCV); conditions: Huh7.5.1 HCVcc-Cre (HCVcc is cell-culture hepatitis C virus) infection, luciferase reporter, 44 h; activity change, negative = inhibition: at 41.8 µM (top of the series)
Outline: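 A cell-based infection assay in which seeded cells (1,000 per well) receive test compound after 4 h, are inoculated with HCVcc-Cre at approximately 0.5 moi, and are incubated 44 h before luminescence detection.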
On the % scale 0 is the no-effect control and ±100 the full control effect; potency means the concentration at half of the fitted maximal effect; tags describe the fitted curve by direction and shape.

**Q.** Which Potency does the source give for `CCOC(=O)c1c(C)[nH]c(C(=O)N/N=C\c2ccccc2O)c1C` here?
**A.** The Potency was inconclusive [inhibitor, full curve].

**Q.** With `Cc1ccc2cc(CN(CCCN(C)C)C(=O)NCc3ccccc3)c(=O)[nH]c2c1C` as the compound, how does the Potency read?
**A.** The Potency was inconclusive [inhibitor, partial curve].

**Q.** For `Cc1ccc(C)c(NS(=O)(=O)c2ccc(NC(=O)CSc3ccc(Cl)cc3)cc2)c1`, which Potency is on record?
**A.** The Potency was inconclusive [inhibitor, partial curve, poor fit].

**Q.** With `Cc1ccccc1C(=O)N1CCN(c2ccc(NC(=O)c3ccc([N+](=O)[O-])o3)cc2)CC1` as the compound, how does the Potency read?
**A.** Its Potency is inconclusive [inhibitor, single point].

**Q.** Which “activity change, negative = inhibition” value does the source give for `CCN1CCN(c2ccc(S(=O)(=O)N3CCOCC3)cc2NC(=O)CCOc2ccccc2)CC1` here?
**A.** The value was inactive: 2.3%.

**Q.** For `CCOCCCNC(=O)c1ccc2nc(-c3ccc(OC)c(OC)c3)c(-c3ccc(OC)c(OC)c3)nc2c1`, which Potency is on record?
**A.** The Potency was inconclusive [inhibitor, single point].

**Q.** With `COc1ccc(CCn2c(N)c(C(=O)NCc3ccco3)c3nc4ccccc4nc32)cc1OC` as the compound, how does the Potency read?
**A.** The Potency was inconclusive [inhibitor, full curve, poor fit].

**Q.** Which Potency does the source give for `CC(C)CC(COCc1ccc(Cl)cc1)N1CCN(C(=O)c2ccc(Cl)cc2Cl)CCC1=O` (stereo not given) here?
**A.** The Potency was inconclusive [inhibitor, single point].

**Q.** Which Potency does the source give for `O=C(COC(=O)c1ccc(F)c([N+](=O)[O-])c1)NC(=O)NCc1ccccc1` here?
**A.** Its Potency is inconclusive [inhibitor, single point].

**Q.** Which Potency does the source give for `COc1ccc(/C=N/NC(=O)CCCOc2ccc(Cl)cc2Cl)cc1[N+](=O)[O-]` here?
**A.** Its Potency is inconclusive [inhibitor, single point].

**Q.** For `CN(CC(=O)Nc1ccccc1Cl)C(=O)c1ccc(COc2ccccc2)cc1`, which Potency is on record?
**A.** The Potency was inconclusive [inhibitor, partial curve].

**Q.** Which Potency does the source give for `O=C(OCn1ncc(Cl)c(Cl)c1=O)c1cccc(C(F)(F)F)c1` here?
**A.** Its Potency is inconclusive [inhibitor, single point].

**Q.** With `Cc1ccc(C(=O)c2ccccc2C(=O)OCC(=O)NCCc2ccccc2)cc1` as the compound, how does the “activity change, negative = inhibition” value read?
**A.** The value was inactive: -27.9%.

**Q.** For `COc1ccc(C(C)(C)C)cc1NC(=O)CSc1ncn[nH]1`, which Potency is on record?
**A.** The Potency was inconclusive [inhibitor, single point].

**Q.** For `COc1ccc(C(C(=O)NC(C)(C)C)N(CCc2ccc(OC)c(OC)c2)C(=O)CCC(=O)Nc2cc(C)on2)cc1` (stereo not given), which “activity change, negative = inhibition” value is on record?
**A.** The value was inactive: -5.75%.

**Q.** With `S=C(Nc1cccc(Cl)c1Cl)NC1CCN(Cc2ccccc2)CC1` as the compound, how does the Potency read?
**A.** The Potency was inconclusive [inhibitor, single point].

**Q.** Which “activity change, negative = inhibition” value does the source give for `COc1ccc(/C(C)=N/NC(=O)CNC(=O)/C=C\c2ccccc2OC)c(OC)c1` here?
**A.** Its value is inactive: 7.73%.

**Q.** For `CCOC(=O)Cn1c(CN2CCOCC2)nc2c1c(=O)[nH]c(=O)n2C`, which Potency is on record?
**A.** Its Potency is inconclusive [inhibitor, single point].

**Q.** With `O=C(CCN1C(=O)/C(=C/c2ccccc2)SC1=S)Nc1ccccn1` as the compound, how does the “activity change, negative = inhibition” value read?
**A.** Its value is inactive: -7.4%.

**Q.** Which “activity change, negative = inhibition” value does the source give for `Cc1nc2[nH]c(=S)[nH]c(=O)c2nc1C` here?
**A.** The value was inactive: 13.5%.

**Q.** With `FC(F)(F)c1cccc(-c2ccc(/C=N/Nc3nncc(-c4ccccc4)n3)o2)c1` as the compound, how does the “activity change, negative = inhibition” value read?
**A.** The value was inactive: 1.57%.

**Q.** For `CC(C)CNC(=O)COC(=O)c1c2c(nc3ccccc13)/C(=C/c1cccs1)CC2`, which Potency is on record?
**A.** The Potency was inconclusive [inhibitor, full curve].

**Q.** Which Potency does the source give for `CCN(CC(=O)Nc1cccc(F)c1)CC(=O)Nc1ccccc1OC` here?
**A.** Its Potency is inconclusive [inhibitor, single point].

**Q.** With `COc1cccc(-c2nc(-c3ccccc3)c(-c3ccccc3)[nH]2)c1OCC(=O)O` as the compound, how does the “activity change, negative = inhibition” value read?
**A.** The value was inactive: 0.711%.

**Q.** For `Cc1ccc(Nc2c([N+](=O)[O-])c(=O)n(C)c3ccccc23)cc1C`, which Potency is on record?
**A.** Its Potency is inconclusive [inhibitor, single point].

**Q.** Which “activity change, negative = inhibition” value does the source give for `CC(C)C(=O)Nc1cccc(NC(=S)NC(=O)c2cccs2)c1` here?
**A.** Its value is inactive: -34.3%.

**Q.** Which Potency does the source give for `O=C(NNC(=S)NC(=O)c1cccc([N+](=O)[O-])c1)c1ccc(Br)cc1` here?
**A.** Its Potency is inconclusive [inhibitor, partial curve].

**Q.** With `O=C(CCc1nnc(CCCCc2ccccc2)o1)NCCN1CCOC1=O` as the compound, how does the “activity change, negative = inhibition” value read?
**A.** The value was inactive: -4.77%.

**Q.** Which Potency does the source give for `COc1ccc(CC(=O)NC(c2ccccc2)c2ccccc2)cc1S(=O)(=O)N1CCOCC1` here?
**A.** Its Potency is inconclusive [inhibitor, single point].

**Q.** For `Cc1ccc2c(c1C)NC(C)CC2C` (stereo not given), which “activity change, negative = inhibition” value is on record?
**A.** Its value is inactive: 2.56%.

**Q.** Which Potency does the source give for `CC(=O)OC(C(=O)NCc1ccc(F)cc1)c1ccccn1` (stereo not given) here?
**A.** Its Potency is inconclusive [inhibitor, single point].

**Q.** With `Cc1ccc(C(=O)CNc2ccc(Br)cc2)cc1` as the compound, how does the “activity change, negative = inhibition” value read?
**A.** The value was inactive: -5.91%.

**Q.** For `Cc1ccc(C(=O)Nc2ccccc2N2CCCC2)s1`, which Potency is on record?
**A.** Its Potency is inconclusive [inhibitor, single point].

**Q.** With `CCOC(=O)C1=C(c2ccccc2)c2ccc(OC)cc2N(S(=O)(=O)C(F)(F)F)C1C(=O)OCC` (stereo not given) as the compound, how does the Potency read?
**A.** The Potency was active: 2 µM.

**Q.** With `CCN(CC(=O)NC1CCCC1)S(=O)(=O)c1ccc(F)cc1` as the compound, how does the “activity change, negative = inhibition” value read?
**A.** The value was inactive: -0.802%.

**Q.** For `O=c1[nH]ncn2cccc12`, which Potency is on record?
**A.** The Potency was inconclusive [inhibitor, single point].

**Q.** Which Potency does the source give for `CO/N=C/c1ccc(N2CCCC2)c([N+](=O)[O-])c1` here?
**A.** The Potency was inconclusive [inhibitor, single point].

**Q.** Which Potency does the source give for `CC(=O)c1cccc(NC(=O)Cn2nc(-c3ccccc3Cl)ccc2=O)c1` here?
**A.** The Potency was inconclusive [inhibitor, partial curve].

**Q.** For `COc1ccc(Cl)cc1NC(=S)NCc1ccc(S(N)(=O)=O)cc1`, which Potency is on record?
**A.** The Potency was inconclusive [inhibitor, single point].

**Q.** With `COc1cc(O)c(CCO)c2c1C(=O)C[C@@H](C)O2` as the compound, how does the Potency read?
**A.** Its Potency is inconclusive [inhibitor, full curve].

**Q.** Which Potency does the source give for `Cc1c(C(=O)NCc2ccccc2CN2CCCC2)oc2ccc(F)cc12` here?
**A.** The Potency was inconclusive [inhibitor, single point].

**Q.** With `CCc1ccc(C(=O)COC(=O)CNC(=O)COc2ccccc2)cc1` as the compound, how does the “activity change, negative = inhibition” value read?
**A.** Its value is inactive: 6.36%.

**Q.** With `O=C(Sc1n[nH]c(=O)[nH]c1=O)c1ccccc1` as the compound, how does the “activity change, negative = inhibition” value read?
**A.** The value was inactive: 10.6%.

**Q.** Which Potency does the source give for `O=S(=O)(NC(=NCCc1ccc(Cl)cc1)c1ccccc1Cl)c1cccs1` here?
**A.** Its Potency is inconclusive [inhibitor, single point].

**Q.** Which “activity change, negative = inhibition” value does the source give for `COc1ccc(C2CN=NC23CCc2ccccc2C3=O)cc1` (stereo not given) here?
**A.** The value was inactive: -19.4%.

Reference: PubChem BioAssay AID651820 (National Center for Advancing Translational Sciences (NCATS), 2012)
